In PubChem BioAssay AID1963576 (National Center for Advancing Translational Sciences (NCATS), 2024):
Hit rate of the full screen: of about 46,000 compounds, about 60 (0.1%) were called active. Another 3% or so got no clear call; they are omitted. Calls come from the whole dose curve; as a rule, active = well fitted inhibition curve with a large enough effect; inconclusive = small, poorly fitted or top-dose-only effect; inactive = no such curve, though single readings can be large or run the other way. This is one part of the list.

assay: Primary qHTS assay for Inhibitors of ovarian cancer metastasis using an organotypic tumor microenvironment (TME) model.; note: nearly all actives have a fitted effect of over 65% in size;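 for activity change, negative = inhibition: plate controls were DMSO wells for no effect and tomatine positive control wells for full effect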; conditions: SKOV3ip1-GFP adhesion/invasion on 3D omental model, fluorescence; series mostly up to 45.8 µM; activity change, negative = inhibition: at the top concentration
Outline: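 Adhesion/invasion was scored as fixed GFP-labeled SKOV3ip1 cell counts (488/509 nm), normalized to DMSO and tomatine controls. Cancer cells in serum-free medium, with four compound doses (0.36-46 umol/L), sat 2 hr at RT then 16 hr at 37 C on a 48 hr fibroblast/mesothelial/ECM culture.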

outcome, inactive:
Cc1cc(NC(=O)c2cccnc2)cc(-c2nc3cc(Cl)ccc3o2)c1O
CCOc1ccc(CN2C(=O)c3ccccc3Sc3ccc(C(=O)N4CCN(C)CC4)cc32)cc1
O=C(NC1CC(=O)N(c2ccccc2)C1)c1ccc(S(=O)(=O)N2CCOCC2)cc1 (centres undefined)
CC1CCN(C(=O)CSc2c3c(nc4cc(Cl)ccc24)CCCC3)CC1
COc1ccc(Br)c2c1-c1nc(NC(=O)c3cccc(C)c3)sc1C2
CCOc1ccc(-n2nc(CO)c(C(=O)NCc3ccc(Cl)cc3)n2)cc1
CCOC(=O)CC(NC(=O)c1cc2cc(Cl)ccc2oc1=O)c1ccc(C)cc1 (centres undefined)
COc1ccc(F)cc1S(=O)(=O)NCCc1csc(-c2ccc(Cl)cc2)n1
Cc1ccc(C)c(-n2nnc(-c3nc(-c4ccc(Cl)cc4)no3)c2N)c1
Cc1cc(C)c(S(=O)(=O)NCCc2cc3c(C)ccc(C)c3[nH]c2=O)c(C)c1
O=C(Nc1ccc(S(=O)(=O)N2CCC(c3nc4ccccc4s3)CC2)cc1)c1ccc(F)cc1
O=C(NCc1ccc2c(c1)CCN2C(=O)c1ccncc1)c1cccc(Cl)c1
COc1ccc(NC(=O)c2sc3nc(C)c(C(=O)Nc4ccc(C)cc4C)c(-c4ccc(Cl)cc4)c3c2N)cc1
CCOc1ccc(NC(=O)CN(C)S(=O)(=O)c2ccc3c(c2)c(=O)n(C)c(=O)n3C)cc1
COc1ccc(-c2nc3sc(CCNC(=O)C(=O)Nc4cc(C)cc(C)c4)c(C)n3n2)cc1
COc1ccc(N2CCN(C(=O)Cn3ncc4c3-c3cc(C)ccc3OC4)CC2)cc1
Cc1ccc(NC(=O)c2cccc(NC(=O)N3CCSc4ncccc43)c2)cc1Cl
O=C(NCCc1ccc(Cl)cc1)c1cccn1-c1nnc(N2CCCCC2)s1
CN(C1CCCCC1)S(=O)(=O)c1ccc(C(=O)Nc2sc3c(c2C(N)=O)CC(C)(C)NC3(C)C)cc1
CC(=O)c1cc(-c2ccccc2)n(CC(=O)NC2CCCCCC2)c1C
Cn1c(=O)c(=O)n(C)c2cc(S(=O)(=O)N3CCN(c4ccccc4F)CC3)ccc21
CNC(=O)c1ccc(Nc2nnc(-c3ccc(C)c(S(=O)(=O)NC(C)(C)C)c3)c3ccccc23)cc1
COc1ccc(CCNC(=O)Cc2c(C)c3cc(OC)c(OC)cc3oc2=O)cc1
O=C(NCC12CC3CC(CC(C3)C1)C2)c1cc2nc(-c3ccc(Cl)cc3)cc(C(F)(F)F)n2n1
COc1ccc(OC)c(NC(=O)Cn2c(=O)oc3cc(S(=O)(=O)NCc4ccccc4)ccc32)c1
CCOc1ccc2oc(=O)cc(CN3CCN(c4ccc(OC)cc4)CC3)c2c1
CCOC(=O)c1ccc(N2C(=O)c3n[nH]c(-c4cccs4)c3C2c2ccc(O)c(OC)c2)cc1 (centres undefined)
CCc1nc2ccc(C(=O)NCCc3ccc(SC)cc3)cc2nc1CC
Clc1cccc(-c2nnc(CN3CCN(c4ccccn4)CC3)o2)c1
CC(=O)OCc1cnc(C)c2oc(=O)c(C(=O)Nc3ccc(F)cc3C)cc12
COc1ccc(NC(=O)C2CCN(C(=O)c3sc4nc[nH]c(=O)c4c3C)CC2)c(OC)c1
COc1ccc2c(C)cc(SCC(=O)Nc3nsc(-c4ccc(C(C)(C)C)cc4)n3)nc2c1
CCC(Cc1ccccc1)NC(=O)c1csc2c1CCCCC2 (centres undefined)

Activity change, negative = inhibition, inactive:
CCC(Sc1nc2cc(OC)c(OC)cc2c(=O)n1Cc1ccc(Cl)cc1)C(=O)NCCOC (centres undefined) -4.38%
CCC(CC)C(=O)Nc1c(C(=O)N2CCN(c3ccccc3F)CC2)oc2ccccc12 -27.1%
CCOc1ccc(-c2nc3c(c(SCC(=O)N4CCCCC4)n2)Cc2cc(C)ccc2O3)cc1 2.95%
COc1ccc(CCNC(=O)CN(c2ccc(C)cc2)S(=O)(=O)c2ccc(OC)cc2)cc1 23.3%
Brc1ccc(-c2ccc(CNCCSc3nnnn3-c3ccccc3)o2)cc1 -0.82%
Cc1ccc(-c2nnc(SCCOc3ccccc3)o2)cc1 -15.9%
COc1ccccc1N1CCN(c2ccc3cc(S(=O)(=O)N4CCCCC4)ccc3n2)CC1 -6.29%
Cc1cc(C)cc(Oc2c(C(F)(F)F)oc3c(CN4CCCC(C)C4)c(O)ccc3c2=O)c1 (centres undefined) -5.01%
c1ccc(-c2cn(-c3ccccc3)c3ncnc(N4CCN(c5ccccc5)CC4)c23)cc1 -15.4%
COc1ccc(OC)c(NC(=O)CSc2n[nH]c(-c3ccccc3Cl)n2)c1 -2.22%
CCC(=O)Nc1sc2c(c1C(=O)Nc1ccc(OC)cc1)CCC(C(C)(C)C)C2 (centres undefined) -9.16%
CC(=O)c1ccc(NC(=O)CSc2cn(CC(=O)N3CCCCC3)c3ccccc23)cc1 11.9%
CCc1ccc(NC(=O)C2CCN(c3nnc(-n4c(C)ccc4C)s3)CC2)cc1 -9.01%
CCOc1ccc(-c2cn(-c3ccc(OC)cc3)c(SCC(=O)Nc3ccccc3Cl)n2)cc1 3.73%
CCCC(=O)NCCc1nc2ccccc2n1Cc1c(F)cccc1Cl 8.31%
Cc1ccc(NC(=O)C2Cc3ccccc3N2C(=O)c2ccccc2)cc1Cl (centres undefined) 7.52%
Cc1oc(-c2ccccc2F)nc1CS(=O)(=O)CC(=O)N1CCN(c2cccc(C(F)(F)F)c2)CC1 -2.15%
N#Cc1ccc(C(=O)Nc2ccc(Cl)c(-c3nc4cc(Cl)ccc4o3)c2)c(F)c1 -16.4%
NNC(=O)c1ccncc1 10.5%
COc1ccc(OC)c(NC(=O)CSC2=Nc3ccccc3C3=NC(CC(=O)NCc4ccco4)C(=O)N23)c1 (centres undefined) -1.57%
Cc1ccc(C(=O)NCC(c2cccs2)S(=O)(=O)c2cccs2)cc1C (centres undefined) 3.03%
COc1cc(OC)cc(C(=O)Nc2cc(-c3nc4ccccc4s3)ccc2OC)c1 -17.7%
CCN(C(=O)c1nn(-c2ccc(OC)c(Cl)c2)c(=O)c2c1c1ccccc1n2C)c1cc(OC)ccc1OC -0.504%
COc1cccc(-c2cc(C(F)(F)F)nc(-n3nc(C)c(Br)c3C)n2)c1 8.71%
Nc1nc(N)c(S(=O)(=O)c2ccccc2)c(Nc2ccc(Br)cc2)n1 -1.02%
O=C(NCC(c1ccc(Cl)cc1)N1CCCCC1)c1ccc(F)cc1 (centres undefined) 3.55%
COc1ccc(C(=O)NCC(c2cccnc2)N2CCN(c3ccc(F)cc3)CC2)cc1 (centres undefined) 1.33%
CCOc1cccc2cc(-c3nc4sc(C(=O)Nc5ccc(C)cc5)c(C)c4c(=O)[nH]3)c(=O)oc12 30.6%
Cc1cccc(NC(=O)C(=O)c2cc(C)n(-c3ccccc3)c2C)c1C -19.6%
O=C(CSc1ccc2nc(-c3ccccc3)cn2n1)Nc1ccccc1C(F)(F)F 16.1%
Cc1cccc(NC(=O)Cn2nc(-c3ccc(Cl)cc3)c3ccccc3c2=O)c1 -3.71%
COc1ccccc1CNC(=O)c1cccn1-c1nnc(N2CCCC2)s1 -27.3%
Cc1ccc(-n2c(SCc3ccccc3F)nc3[nH]ncc3c2=O)cc1C 4.43%
Cc1cccc(NC(=O)CSc2nc3c(c(=O)[nH]2)CN(Cc2ccc4c(c2)OCO4)CC3)c1C -2.04%
O=C(Cn1c(=O)n(Cc2cccs2)c(=O)c2cccnc21)Nc1ccccc1F 5.11%
Cc1cc(O)c(C(c2cccc(F)c2)N2CCC(C)CC2)c(=O)n1Cc1ccco1 (centres undefined) -6.7%
CCc1nc(-c2cc(S(=O)(=O)N3CCN(c4ccc(F)cc4)CC3)ccc2OC)no1 -5.98%
COc1ccc(N2CCN(C(=O)CSCc3nc(-c4ccccc4Cl)oc3C)CC2)cc1 -1.23%
O=C(Nc1cccc(C(F)(F)F)c1)c1noc2c1CCc1ccccc1-2 -13.1%
O=C(NCc1cccc(F)c1)c1ccc(CS(=O)c2ccccc2Cl)o1 (centres undefined) -4.89%
CCOC(=O)N1CCc2c(sc3c2c(=O)n(Cc2ccccc2)c(=O)n3CC(=O)Nc2c(C)cccc2C)C1 -5.49%
COc1ccccc1NC(=O)CCN1CCC(C(N)=O)CC1 21.2%
CCc1ccc(-n2c(=O)c3cccnc3n2CC(=O)NCc2ccc(F)cc2)cc1 -5.03%
Cc1ccc(C(=O)Nc2ccc(-n3c(C)nc4ccccc4c3=O)cc2)cc1[N+](=O)[O-] -30.4%
Cc1cccc(C)c1OCC(=O)Nc1nonc1-c1ccc(Br)cc1 3.34%
CCN(C(=O)c1cc2c(s1)-c1c(C)cccc1OC2)c1cc(C)ccc1C 2.52%
CCN(C(=O)CCS(=O)(=O)c1cccc2nsnc12)c1cccc(C)c1 -21.9%
O=C(Nc1nc2n(n1)C(c1ccc(F)cc1)C=C(c1ccc(Cl)cc1)N2)c1ccco1 (centres undefined) -7.13%
COc1ccc(-n2c(=O)c3ccccc3n(Cc3ccc(F)cc3Cl)c2=O)cc1OC 29.7%
Cc1cc(S(=O)(=O)Nc2cc3c(cc2N2CCOCC2)n(C)c(=O)n3C)ccc1F 0.551%
COc1ccc(NC(=O)C(CC(C)C)NC(=O)C2CCCCC2)c(OC)c1 (centres undefined) -3.57%
COc1ccc(C2CC(=O)c3cc(-c4nc(-c5ccc(Cl)cc5)cs4)c(=O)[nH]c3C2)cc1 (centres undefined) 10.2%
CC(=O)Nc1nonc1-c1nnc(SCC(=O)Nc2ccccc2Cl)n1C 7.91%
COc1cc(NC(=O)c2cc(-c3ccccc3O)no2)cc(OC)c1OC -37%
CCOc1ccc(CNC(=O)C2CCN(C3=NS(=O)(=O)C(c4ccc(C)cc4)=C3CC)CC2)cc1 -6.32%
CCN(CC)S(=O)(=O)c1ccc2c(c1)N(CC(=O)N1CCN(c3cc(Cl)ccc3C)CC1)C(=O)CO2 -1.23%
CCc1ccccc1N1CC(c2nnc(NC(=O)c3ccco3)s2)CC1=O (centres undefined) 7.66%
Cc1cccc(N2CCN(c3nc4ccccc4c4nc(-c5ccccc5)nn34)CC2)c1C -0.114%
COc1cc(NC(=O)CCCSc2nc(-c3ccco3)cc(C(F)(F)F)n2)cc(OC)c1OC -9.12%
COc1cccc(Cn2c(SCc3ccc(C(=O)N4CCC(C)CC4)cc3)nc3ccncc32)c1 -2.77%
CCN(c1ccccc1)S(=O)(=O)c1cc(C(=O)Nc2ccc(Br)cc2)ccc1F -43.3%
